Experiment [1] concerns the target Peptidyl-prolyl cis-trans isomerase A (UniProt P62937). Put plainly: cross-linking mass spectrometry.
Experiment [2] addresses Calreticulin (UniProt P27797). Put plainly: cross-link between two proteins; cross-linking mass spectrometry.
Sequence of UniProt P27797 (P27797 whole entry): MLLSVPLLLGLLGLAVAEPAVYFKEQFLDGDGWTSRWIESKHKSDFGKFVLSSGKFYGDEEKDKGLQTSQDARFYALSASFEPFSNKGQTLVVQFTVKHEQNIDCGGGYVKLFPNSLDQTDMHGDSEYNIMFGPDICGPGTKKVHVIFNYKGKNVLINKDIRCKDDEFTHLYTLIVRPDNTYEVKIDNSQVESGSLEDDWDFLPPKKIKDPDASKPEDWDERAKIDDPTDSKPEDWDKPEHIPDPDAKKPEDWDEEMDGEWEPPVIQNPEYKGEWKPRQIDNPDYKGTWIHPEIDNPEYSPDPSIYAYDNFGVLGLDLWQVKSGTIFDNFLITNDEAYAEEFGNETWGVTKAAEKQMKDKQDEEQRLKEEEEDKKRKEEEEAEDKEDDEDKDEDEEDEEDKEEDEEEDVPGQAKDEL

Sequence of Integrin beta-1 (chain, as listed by the source): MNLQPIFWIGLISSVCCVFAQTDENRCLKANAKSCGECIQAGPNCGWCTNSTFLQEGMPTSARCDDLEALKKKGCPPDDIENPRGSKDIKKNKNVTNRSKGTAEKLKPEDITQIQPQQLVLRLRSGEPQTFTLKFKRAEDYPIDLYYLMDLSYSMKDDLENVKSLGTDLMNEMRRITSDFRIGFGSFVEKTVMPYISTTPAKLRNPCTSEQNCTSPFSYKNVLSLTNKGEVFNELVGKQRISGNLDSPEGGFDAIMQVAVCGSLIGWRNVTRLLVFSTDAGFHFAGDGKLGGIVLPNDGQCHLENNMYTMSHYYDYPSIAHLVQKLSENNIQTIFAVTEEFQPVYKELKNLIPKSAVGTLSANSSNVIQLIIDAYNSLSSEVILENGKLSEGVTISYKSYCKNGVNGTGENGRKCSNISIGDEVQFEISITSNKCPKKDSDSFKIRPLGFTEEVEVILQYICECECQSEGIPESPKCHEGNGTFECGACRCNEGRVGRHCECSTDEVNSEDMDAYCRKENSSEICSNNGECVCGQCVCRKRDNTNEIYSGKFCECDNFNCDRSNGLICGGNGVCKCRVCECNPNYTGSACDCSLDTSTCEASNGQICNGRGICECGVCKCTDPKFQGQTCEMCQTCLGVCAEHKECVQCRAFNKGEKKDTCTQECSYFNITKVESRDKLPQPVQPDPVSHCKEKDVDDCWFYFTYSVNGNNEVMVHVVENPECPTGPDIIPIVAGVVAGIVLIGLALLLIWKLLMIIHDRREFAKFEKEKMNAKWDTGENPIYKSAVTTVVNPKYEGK
Sequence of UniProt P62937 (P62937 whole entry): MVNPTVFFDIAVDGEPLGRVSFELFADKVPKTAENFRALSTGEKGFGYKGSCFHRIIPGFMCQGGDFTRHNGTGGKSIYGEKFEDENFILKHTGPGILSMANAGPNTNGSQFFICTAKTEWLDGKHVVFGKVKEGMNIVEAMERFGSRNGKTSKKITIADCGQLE
Sequence of Alpha-enolase (chain, as listed by the source): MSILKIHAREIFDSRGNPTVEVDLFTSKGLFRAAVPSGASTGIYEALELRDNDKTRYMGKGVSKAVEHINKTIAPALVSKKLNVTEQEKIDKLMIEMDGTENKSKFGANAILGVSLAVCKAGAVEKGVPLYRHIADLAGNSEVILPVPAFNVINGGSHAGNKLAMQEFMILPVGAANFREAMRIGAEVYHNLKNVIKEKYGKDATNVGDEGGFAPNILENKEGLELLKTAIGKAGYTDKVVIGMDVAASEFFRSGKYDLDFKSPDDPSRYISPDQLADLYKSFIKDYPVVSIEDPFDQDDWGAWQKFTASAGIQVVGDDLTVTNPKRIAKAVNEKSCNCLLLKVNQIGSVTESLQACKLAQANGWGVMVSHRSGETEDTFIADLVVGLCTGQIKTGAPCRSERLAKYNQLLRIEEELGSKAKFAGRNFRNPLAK

For the substance Alpha-enolase, in experiment [1], the “listed as a hit” value is recorded as “yes”.

Integrin beta-1: the “listed as a hit” value in experiment [2] is “yes”.

The values above are taken from PMC12280212.
